# About 540 (0.36%) of roughly 150,000 compounds showed an effect of 50% or more. Some of the results follow.
# Test system: Plasmodium falciparum
# Experiment: Primary screen in NF54 nanoGlo assay, in single point, at 2uM, 72h; a lower Z score goes with more inhibition
# Type: functional, Erythrocyte
# Details: timepoint 72 hour
SMILES,% Inhibition [%],Z score
CCN(CC(=O)N1CCC(C2CCOCC2)CC1)C1CC1,0,0.05
CCC[C@H](NCc1cc[nH]n1)c1ncccc1Cl,-1,0.26
CC(C)N1CCCN(C[C@H]2CCOC(C)(C)C2)CC1,-5,0.86
CCOC(=O)CN(Cc1ncccn1)C(=O)[C@H](C)Oc1cccc(C#N)c1,-10,1.34
Cc1ccccc1C1(C(=O)N(C)c2cnn(C)c2)CCCC1,2,-0.34
COC1CCN([C@H]2CCC[C@H]2NC(=O)Nc2cnn(-c3ncccc3C#N)c2)C1 (stereo not given in full),-8,1.66
CCn1nc(C)c(CCN(C)c2ncc(NS(=O)(=O)c3cccc(F)c3)cc2C(=O)O)c1C,6,-0.55
CCN(C(=O)C(=O)Nc1cc(C)on1)C1CCCCC1,-2,0.18
C[C@H](NC(=O)c1ccccc1CC(C)(C)C)c1nc[nH]n1,7,-1.24
COc1ccc2c(c1)O[C@@H](C)CN(CCNC(=O)c1cc(C)nc(C)n1)C2,-9,1.64
COC(=O)c1cccc(-c2nc(-c3cn(-c4ccc(C)cc4)nn3)no2)c1,-26,5.19
CCNC(=O)[C@H]1CCN(S(=O)(=O)c2cc(Cl)c(Cl)s2)C1,4,-0.58
Cc1c(-c2cc(-c3cnn(C)c3C)n(S(=O)(=O)c3ccc(Cl)cc3)n2)cnn1C,35,-3.92
CCNC(=O)c1ccnc(NCCc2nc(C)cc(=O)[nH]2)c1,-7,1.28
O=C(N[C@@H](Cc1ccccc1)c1ccccc1)c1cc2n(n1)CCN(Cc1ccccc1)C2=O,13,-1.43
CCN(C(=O)c1cc(F)c(F)cc1Cl)c1ccncc1,3,-0.43
COC(=O)C1=C(C(=O)OC)c2ccc(C)c3cc(C)c(n23)C=C1,2,-0.18
CO[C@H]1CN(Cc2csc3ccccc23)C[C@@H]1O,-7,1.21
COCCn1cncc1CN1CCO[C@H](C(F)(F)F)C1,4,-0.67
CO[C@H]1C[C@@H](O)C12CCN(c1nc(C(N)=O)cs1)CC2,-5,0.79
Cc1nc(-c2cccc(Cl)c2)sc1C(=O)N(CC(=O)O)C1CCOCC1,-2,0.27
CC(=O)Nc1ccc(C(=O)N2CCc3[nH]c(=O)c(C#N)cc3C2)cc1,-8,1.28

SMILES,% Inhibition [%],Z score
COc1c(NC(=O)C2CC23CCCc2ccccc23)c(C)nn1C (stereo not given),14,-1.65
CC(=O)N(CCN1CCCCC1)[C@H]1CCCN(Cc2c(C)nn(C)c2C)C1,-4,0.57
N#Cc1cccc(CN[C@H]2CC23CCOCC3)c1,-6,0.89
CC(=O)N(Cc1nccn1Cc1ccccc1)C1CC1,-17,1.66
COC(=O)COc1ccccc1CN1CCCn2cncc2C1,6,-0.79
CC(C)C(=O)N1CCN(c2ccc(NC(=O)c3ccc4ccccc4c3)cc2Cl)CC1,4,-0.67
CN(CC[C@H]1CNCC[C@H]1CC(=O)O)c1ccc(F)cc1,-9,1.38
FC1(F)CC(Cc2noc(Cc3ccc4c(c3)CCCO4)n2)C1,-19,2.93
CN(Cc1ccc(C(=O)O)cc1)C(=O)c1cccc(N2CCCC2=O)c1,-8,1.2
CC(C)c1noc(CN(C)Cc2ccccc2-c2ccco2)n1,0,-0.02
Cc1cnc(NC2CCN(Cc3ccccc3)CC2)nc1,10,-1.76
O=C(CCC1CCCC1)NCCc1noc(-c2cccnc2)n1,-2,0.19
CC(C)CCNC(=O)CC[C@H]1CCCO1,-9,0.99
c1ccc(-n2ccc(COc3ccccc3-c3nnc[nH]3)n2)cc1,29,-3.28
COCCOc1cc(=O)n2c(c1C(=O)N1CCc3ccccc3C1)CCOCC2,0,0.02
O=S(=O)(NCC12CCC(CC1)C2)C1CCC1,-3,0.35
Cc1cnn(Cc2cc(C(=O)N(C)Cc3nc4ccccc4n3C)no2)c1,40,-4.47
COc1ccc(C2CN(C(=O)c3ccc(Cl)cc3)CC2C(=O)NC2CC2)c(OC)c1 (stereo not given),-10,1.23
NC(=O)c1cccc(CNc2ncnc3c2ncn3-c2ccccc2)c1,-24,2.37
CC(C)[C@H]1COC2(c3ccccc3)CCC(=O)N12 (stereo not given in full),-18,2.27
Cc1cc(S(=O)(=O)N2CC(C)(C)[C@H]2c2nccn2C)c(F)cc1F,2,-0.42
O=C(CN1C(=O)COc2ccc(Cl)cc21)N1CCC[C@H](O)C1,-8,1.12

SMILES,% Inhibition [%],Z score
O=C(NC[C@H]1CCCN(c2nccs2)C1)c1ccc2c(c1)OCO2,18,-2.23
CS(=O)(=O)C1(CNCc2cc3ccc(F)cc3[nH]2)CCCC1,2,-0.46
CC1=NS(=O)(=O)N(C)C=C1C(=O)NCc1ccc(Cl)cc1,-16,1.8
COc1cc2cc(CNCc3ccccc3Cl)c(=O)n(CC3CCCCC3)c2cc1OC,-2,0.25
O=C(Cc1ccsc1)NCc1ccc(C2CC2)nc1,20,-2.59
Cn1nccc1-c1ccc(N2CCCC2)nn1,-3,0.55
CS(=O)(=O)N1C[C@H]2CC[C@@H](C1)N(C(=O)c1cnoc1-c1ccccc1)C2,5,-0.85
O=S(=O)(c1ccc(-c2noc(/C=C/c3ccccc3Cl)n2)cc1)N1CCCC1,-6,0.9
CN1CCN(Cc2cc(=O)c3cccc(F)c3[nH]2)C[C@]12CCNC(=O)CC2,-6,1.15
Cc1ccc(C)c(-c2cc(C(=O)N(CCC(=O)N(C)Cc3ccccc3)CC(C)C)no2)c1,1,-0.18
O=C(c1ccncc1)N1CCC(F)(C(=O)NCc2ccncc2)CC1,-4,0.84
CC(=O)N1CCN(C(=O)c2coc(CN(Cc3ccc(C(F)(F)F)cc3)Cc3ccc4c(c3)OCO4)n2)CC1,-14,1.37
Cc1ccc(CNC(=O)Nc2cc3c(cc2N2CCCC2)n(C)c(=O)n3C)cc1,-10,1.93
COc1cccc(OC)c1C(=O)N1CC[C@]2(OC)CC[C@H](OC)C[C@H]12,-4,0.67
Cc1cnn(CCCNc2nc3c(s2)c(C)nn3C)c1,-17,1.51
Cc1nc2ccccn2c1CNC(=O)Nc1ccnn1[C@H]1CCOC1,-8,0.96
COc1ccccc1C(CNS(=O)(=O)CC1CCCS(=O)(=O)C1)N1CCCC1 (stereo not given),-6,0.74
O=C(CN1CCC[C@H]1c1nc2ccccc2s1)N1CCc2sccc2C1,-11,1.74
Cc1ccc(N2CCC(N3CCC4(CCNC(=O)CC4)CC3)CC2)cc1Cl,11,-1.61
O=C(Nc1nc2ccccc2[nH]1)C1CCC1,1,-0.1
O=c1[nH]c2ccc(NS(=O)(=O)c3ccc(Br)cc3)cc2s1,-10,1.22
Cc1cc(S(=O)(=O)N2CCC3(CCNC(=O)CC3)CC2)ccc1F,-13,2.29

SMILES,% Inhibition [%],Z score
COc1ccccc1-c1noc(C[C@@H]2C(=O)Nc3cc(F)ccc32)n1,1,-0.21
COc1cccc(OC)c1OCc1nc(C(=O)NCc2ccccn2)cs1,-2,0.34
CC(C)(CNC(=O)[C@H]1CC1(Cl)Cl)N1CCOCC1,-5,0.65
Cc1cnc(C(C)NC(=O)NC(C)(CO)C2CCCCC2)s1 (stereo not given),2,-0.29
CC(=O)N1CCc2c(sc(NC(=O)c3cc(-c4ccccc4)nc4ccccc34)c2C(N)=O)C1,5,-0.79
N#Cc1cc(C(=O)NCc2cccc(NC(=O)N3CCCC3)c2)c[nH]1,-10,1.12
CCN1CCO[C@H](c2nnc(COc3ccc4ccccc4c3)o2)C1,-8,0.86
O=C(CCc1nc(C2CC2)no1)N1CCCC1CC1CC2CCC1C2 (stereo not given),-17,2.42
CN(Cc1ccccc1)c1cccc(-n2ccnc2)n1,7,-1.57
Cc1ccc(-n2nc(C)c(S(=O)(=O)c3ccccc3)c2OC(=O)C(C)(C)C)c(C)c1,-12,1.95
CO[C@H]1CCC12CCN(S(=O)(=O)c1cccnc1)CC2,6,-1.14
CCOc1nnc(CNCCn2cccn2)s1,-4,0.4
CC[C@@H](CO)NCc1c(C)cc(OC)nc1C,16,-1.64
c1ccc(-n2nc(C3CC3)nc2[C@@H]2COc3ccccc3O2)nc1,-13,1.51
CCCc1nnc(NC(=O)Cc2cccc3ccccc23)s1,26,-2.91
CC(C)(C)c1nsc(NC(=O)NC2CCN(Cc3ccccc3)CC2)n1,-14,1.46
N#Cc1cccc(C(=O)N2CCC[C@H](Oc3cccnn3)C2)c1,-4,0.47
c1cncc(CNc2cc(-c3cnc4nn[nH]c4c3)c3cc[nH]c3n2)c1,-3,0.58
NC(=O)C[C@H]1COCCN1C(=O)c1onc2c1CCCC2,-5,0.89
